# Test results as given in PubChem BioAssay AID2675 (National Center for Advancing Translational Sciences (NCATS), 2010).
# Screen size: about 280,000 compounds; about 100 (0.036%) were called active. The shares of active, inactive and inconclusive entries below differ from those in the screen. Calls come from the whole dose curve; as a rule, active = well fitted inhibition curve with a large enough effect in the signal ratio, with a control signal flat (not every such curve was filed as active); inconclusive = small, poorly fitted or top-dose-only effect, or effect the other way, or a change in a side signal; inactive = no such curve, though single readings can be large or run the other way; the % refers to the signal ratio. Potencies beside an inconclusive call are fits to weak or partial responses and may not hold up. A note “side channel” means that the fit belongs to a control or component signal, not to the main read-out.
# Molecular target: Muscleblind-like protein 1 (Homo sapiens) (UniProt Q9NR56)
# Assay: qHTS Assay for Inhibitors of MBNL1-poly(CUG) RNA binding
# Conditions: TR-FRET MBNL1-His/biotin-(CUG)12 binding, 665/545 ratio; series mostly up to 57.5 µM
# In short: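 His-tagged MBNL1 binding to biotinylated (CUG)12 RNA was measured by TR-FRET using terbium anti-His antibody (0.055 ng/ul final) and streptavidin-XL665 (5 nM final). Compounds were titrated 92 nM to 58 uM; 60 min at room temperature.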
# Potency is the fitted concentration of half-maximal effect; tags give direction and shape of the fitted curve or compound fluorescence and quenching.
# Sequence of UniProt Q9NR56 (Q9NR56 whole entry, looked up): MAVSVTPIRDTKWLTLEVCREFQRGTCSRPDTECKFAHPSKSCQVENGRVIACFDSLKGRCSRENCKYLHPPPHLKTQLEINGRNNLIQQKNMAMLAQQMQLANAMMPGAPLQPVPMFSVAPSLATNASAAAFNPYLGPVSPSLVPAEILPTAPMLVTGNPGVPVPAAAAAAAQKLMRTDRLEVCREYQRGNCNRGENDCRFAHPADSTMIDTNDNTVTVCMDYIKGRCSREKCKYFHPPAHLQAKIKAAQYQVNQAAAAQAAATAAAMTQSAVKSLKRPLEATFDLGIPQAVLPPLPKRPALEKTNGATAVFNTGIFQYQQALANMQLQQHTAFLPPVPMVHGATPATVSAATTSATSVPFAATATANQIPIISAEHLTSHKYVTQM
row,Compound,Potency
1,O=C(c1ccc(F)cc1)N1CCN(c2ccc([N+](=O)[O-])c(N3CCOCC3)c2)CC1,"inconclusive: 28.2 µM [quencher, side channel, partial curve]"
2,Cc1ccc(C(=O)N(Cc2ccc3c(c2)OCO3)Cc2nc3ccccc3c(=O)[nH]2)cc1,inactive
3,COc1ccc(CNc2ccc([N+](=O)[O-])cn2)cc1,"inconclusive: 12.6 µM [quencher, side channel, partial curve]"
4,CCOC(=O)CSc1nnc2c(n1)C1(C)CCC2C1(C)C (configuration not stated),inactive
5,C=CCNC(=O)/C(C#N)=C/c1c(N2CCN(c3ccc(OC)cc3)CC2)nc2c(C)cccn2c1=O,"inconclusive: 2.51 µM [quencher, side channel, full curve, poor fit]"
6,COCCNc1nc2nonc2nc1N1CCCC1c1nccs1 (configuration not stated),"inconclusive: 25.1 µM [quencher, side channel, partial curve]"
7,COCCCNC(=O)CSc1ccsc1[N+](=O)[O-],"inconclusive: 14.1 µM [quencher, side channel, partial curve]"
8,CC(=O)c1ccc(NC(=O)c2noc(C)c2[N+](=O)[O-])cc1,"inconclusive: 14.1 µM [quencher, side channel, partial curve]"
9,CC1(C)CC(=O)C2=C(C1)N=C1SCCC(=O)N1C2c1ccccc1 (configuration not stated),"inconclusive: 22.4 µM [quencher, side channel, partial curve]"
10,CC(=O)c1sc(NC(=O)CCN2C(=O)c3ccccc3C2=O)nc1C,"inconclusive: 25.1 µM [quencher, side channel, partial curve]"
11,CC1(C)CC(=O)C2=C(C1)NC(=O)NC2c1ccc([N+](=O)[O-])cc1 (configuration not stated),"inconclusive: 11.2 µM [quencher, side channel, partial curve]"
12,O=C(CCc1ccc(O)c(O)c1)N/N=C/c1ccc2c(c1)OCO2,"inconclusive: 14.1 µM [quencher, side channel, partial curve]"
13,CCOC(=O)CNC(=O)CSc1nnc(-c2ccccc2)c(-c2ccccc2)n1,"inconclusive: 15.8 µM [quencher, partial curve]"
14,CC1(OC(=O)C2CCCC2)C(=O)C=C2C=C(c3ccsc3)N(CCc3ccccn3)C=C2C1=O (configuration not stated),"inconclusive: 14.1 µM [quencher, side channel, partial curve]"
15,CCOC(=O)c1[nH]c2cc(OC)c(OC)cc2c1NC(=O)c1ccc2c(c1)OCO2,inactive
16,O=c1c2c(C(F)(F)F)cc(C(F)(F)F)nc2[nH]n1-c1ccccc1,"inconclusive: 31.6 µM [quencher, side channel, single point]"
17,Cn1c(CN2CCOCC2)nc2cc(NC(=O)COc3ccc([N+](=O)[O-])cc3)ccc21,"inconclusive: 15.8 µM [quencher, partial curve]"
18,N=C1SCC(=O)N1c1nc(-c2ccccc2)cs1,inactive
19,O=C(COC(=O)c1cc([N+](=O)[O-])ccc1N1CCOCC1)NCCc1ccccc1,"inconclusive: 14.1 µM [quencher, side channel, partial curve]"

row,Compound,Potency
1,CCCCNC(=O)C1CC(c2ccccc2[N+](=O)[O-])=NO1 (configuration not stated),"inconclusive: 31.6 µM [quencher, side channel, single point]"
2,O=C(COc1ccc([N+](=O)[O-])cc1)NCc1ccncc1,"inconclusive: 35.5 µM [quencher, side channel, single point]"
3,CC(=O)N1c2ccccc2CCc2ccc([N+](=O)[O-])cc21,"inconclusive: 14.1 µM [quencher, side channel, partial curve]"
4,Cc1noc(C)c1S(=O)(=O)N1CCN(c2ccc([N+](=O)[O-])cc2)CC1,"inconclusive: 3.98 µM [quencher, side channel, full curve]"
5,Cc1cnc(CN2CCc3c([nH]c4ccccc34)C2C2CCCCC2)[nH]1 (configuration not stated),inactive
6,Cc1cc(C)cc(N2CCCn3c2nc2c3c(=O)[nH]c(=O)n2C)c1,inactive
7,C#Cc1ccc(CN2CCN(CCc3ccccc3)C(CCO)C2)cc1 (configuration not stated),inactive
8,Cc1ccc(C)c2[nH]c(=O)c(CN(CCN3CCOCC3)Cc3nnnn3CC3CCCO3)cc12 (configuration not stated),"inconclusive: 22.4 µM [quencher, single point]"
9,C/C(=N\O)c1ccc2c3c([nH]c2c1)CCCC3,inactive
10,CC(NC(=O)/C=C/c1cnc2ccccc2n1)C12CC3CC(CC(C3)C1)C2 (configuration not stated),"inconclusive: 25.1 µM [quencher, side channel, single point]"
11,Oc1ccccc1-c1nc(/C=C/c2ccccc2)nn1-c1ccccc1,"inconclusive: 31.6 µM [fluorescent, side channel, partial curve]"
12,CSc1nnc(N2C(=O)C(O)=C(C(=O)c3ccco3)C2c2ccc(F)cc2)s1 (configuration not stated),"inconclusive: 17.8 µM [quencher, side channel, partial curve]"
13,Cc1ccc(OCCNc2cc(N3CCN(CCO)CC3)ccc2[N+](=O)[O-])cc1C,"inconclusive: 25.1 µM [quencher, side channel, partial curve]"
14,CNC(=O)CSc1nnc(SCCC(=O)O)s1,"inconclusive: 10 µM [fluorescent, side channel, partial curve, poor fit]"
15,CCN(CC)C(=O)COC(=O)c1cc(-c2ccc(OC)cc2)nc2ccccc12,"inconclusive: 22.4 µM [quencher, side channel, partial curve]"
16,Cn1c(CC2C(=O)Nc3ccc(Br)cc32)nc2ccccc2c1=O (configuration not stated),"inconclusive: 8.91 µM [quencher, side channel, single point]"
17,O=C(COC(=O)c1ccc([N+](=O)[O-])s1)Nc1ccc(Cl)cn1,"inconclusive: 3.55 µM [quencher, side channel, partial curve]"
18,Cc1cccc2cc(/C=N/Nc3ccc(C(=O)O)cc3)c(Cl)nc12,"inconclusive: 25.1 µM [quencher, side channel, single point]"
